Test system: MYC
Assay: cells
Conditions: Homo sapiens, MV4-11, 4 h, read-out: Myc IC50 (μM)

Question: With `CC(=O)N1CCc2c(c(Nc3ccc(-c4cnn(C)c4)cc3F)nn2C2(C)CCOC2)C1` (centres unmarked) [Example 277, 1-[3-[7-(1-methylpyrazol-4-yl)-6-(trifluoromethyl)-2,3-dihydro-1,4-benzoxazin-4-yl]-1-tetrahydropyran-4-yl-6,7-dihydro-4H-pyrazolo[4,3-c]pyridin-5-yl]ethanone] as the compound, how does the IC50 read?
Answer: 0.08 µM

Question: For `CC(=O)N1CCc2c(c(N3CCCc4cc(-c5cnn(C)c5)c(OC(F)F)cc43)nn2C2CCOCC2)C1` [Example 146, 1-[3-[7-(difluoromethoxy)-6-(1-methylpyrazol-4-yl)-3,4-dihydro-2H-quinolin-1-yl]-1-tetrahydropyran-4-yl-6,7-dihydro-4H-pyrazolo[4,3-c]pyridin-5-yl]ethanone], which IC50 is on record?
Answer: 0.051 µM

Question: How did the IC50 turn out when `CC(=O)N1CCc2c(c(N(C)c3ccc(-c4cnn(C)c4)cc3)nn2CC2CC2)C1` [Example 225, 1-[1-(cyclopropylmethyl)-3-[N-methyl-4-(1-methylpyrazol-4-yl)anilino]-6,7-dihydro-4H-pyrazolo[4,3-c]pyridin-5-yl]ethanone] was run?
Answer: 0.535 µM

Question: Which IC50 does the source give for `CC(=O)N1CCc2c(c(N3CCC(C)c4cc(-c5cnn(C)c5)c(Cl)cc43)nn2[C@H]2CCOC2)C1` (stereo partly drawn) [Example 102, 1-[3-[7-chloro-4-methyl-6-(1-methylpyrazol-4-yl)-3,4-dihydro-2H-quinolin-1-yl]-1-((S)-tetrahydrofuran-3-yl]-6,7-dihydro-4H-pyrazolo[4,3-c]pyridin-5-yl]ethanone] here?
Answer: 0.154 µM

Question: How did the IC50 turn out when `CNC(=O)N1CCc2c(c(N3CCCc4cc(-c5cccs5)c(C(F)F)cc43)nn2C2CCOCC2)C1` [Example 362, 3-[7-(difluoromethyl)-6-(2-thienyl)-3,4-dihydro-2H-quinolin-1-yl]-N-methyl-1-tetrahydropyran-4-yl-6,7-dihydro-4H-pyrazolo[4,3-c]pyridine-5-carboxamide] was run?
Answer: 0.056 µM

Question: Which IC50 does the source give for `CC(=O)N1CCc2c(c(N3CCc4cc(-c5cnn(C)c5)c(C(F)F)cc43)nn2C2COC2)C1` [Example 218, 1-[3-[6-(difluoromethyl)-5-(1-methylpyrazol-4-yl)indolin-1-yl]-1-(oxetan-3-yl)-6,7-dihydro-4H-pyrazolo[4,3-c]pyridin-5-yl]ethanone] here?
Answer: 0.551 µM

Question: For `CC(=O)N1CCc2c(c(N3CCc4cc(-c5cnn(C)c5C)c(C(F)F)cc43)nn2C2CCOCC2)C1` [Example 244, 1-[3-[6-(difluoromethyl)-5-(1,5-dimethylpyrazol-4-yl)indolin-1-yl]-1-tetrahydropyran-4-yl-6,7-dihydro-4H-pyrazolo[4,3-c]pyridin-5-yl]ethanone], which IC50 is on record?
Answer: 0.086 µM

Question: For `CC(=O)N1CCc2c(c(N(C)c3ccc(-c4cn(C)nc4C(F)(F)F)cc3)nn2C2CCOC2)C1` (centres unmarked) [Example 226, 1-[3-[N-methyl-4-[1-methyl-3-(trifluoromethyl)pyrazol-4-yl]anilino]-1-tetrahydrofuran-3-yl-6,7-dihydro-4H-pyrazolo[4,3-c]pyridin-5-yl]ethanone], which IC50 is on record?
Answer: 0.514 µM

Question: With `CNC(=O)c1ccc(-c2cc3c(cc2C(F)(F)F)N(c2nn(C4CCOCC4)c4c2CN(C(C)=O)CC4)CCN3C)cn1` [Example 270, 5-[1-(5-acetyl-1-tetrahydropyran-4-yl-6,7-dihydro-4H-pyrazolo[4,3-c]pyridin-3-yl)-4-methyl-7-(trifluoromethyl)-2,3-dihydroquinoxalin-6-yl]-N-methyl-pyridine-2-carboxamide] as the compound, how does the IC50 read?
Answer: 0.019 µM

Question: `CNC(=O)N1CCc2c(c(N3CCCc4cc(-c5cnn(C)c5)c(OC(F)(F)F)cc43)nn2C2CCOCC2)C1` [Example 256, N-methyl-3-[6-(1-methylpyrazol-4-yl)-7-(trifluoromethoxy)-3,4-dihydro-2H-quinolin-1-yl]-1-tetrahydropyran-4-yl-6,7-dihydro-4H-pyrazolo[4,3-c]pyridine-5-carboxamide] was tested. Which IC50 did it give?
Answer: 0.011 µM

Question: `CC(=O)N1CCc2c(c(N3CCCc4cc(-c5cccnc5)c(C#N)cc43)nn2C2CCOCC2)C1` [Example 281, (R)-1-[3-[2,6-difluoro-3-(1-methylpyrazol-4-yl)anilino]-1-tetrahydrofuran-3-yl-6,7-dihydro-4H-pyrazolo[4,3-c]pyridin-5-yl]ethanone] was tested. Which IC50 did it give?
Answer: 0.062 µM

Source: patent publication US9763922B2 (priority 2014, dated 2017)
